Measurements from the supplement of paper PMC9542798.

How the values were obtained:
Assay in all cases: minimum inhibitory concentration
Ampicillin = compound: CC1(C)S[C@@H]2[C@H](NC(=O)[C@H](N)c3ccccc3)C(=O)N2[C@H]1C(=O)O [Ampicillin]
Description: (§1)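 Broth microdilution MIC per ISO 10932 on precoated VetMIC Lact-1 plates (tylosin, vancomycin and ampicillin plates prepared manually) against lactic acid bacteria and bifidobacteria isolates. Plates were read visually after 48 h anaerobic incubation (bifidobacteria 72 h; enterococci and staphylococci 24 h aerobic) at species-specific temperatures of 30 or 37 °C. Values prefixed with < or > are outside the tested dilution range.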

Clindamycin = compound: CCC[C@@H]1C[C@@H](C(=O)N[C@@H]([C@H]2O[C@H](SC)[C@H](O)[C@@H](O)[C@H]2O)[C@H](C)Cl)N(C)C1 [Clindamycin]
Description: as §1

Erythromycin = compound: CC[C@H]1OC(=O)[C@H](C)[C@@H](O[C@H]2C[C@@](C)(OC)[C@@H](O)[C@H](C)O2)[C@H](C)[C@@H](O[C@@H]2O[C@H](C)C[C@H](N(C)C)[C@H]2O)[C@](C)(O)C[C@@H](C)C(=O)[C@H](C)[C@@H](O)[C@]1(C)O [Erythromycin]
Description: as §1

Tetracycline = compound: CN(C)[C@@H]1C(O)=C(C(N)=O)C(=O)[C@@]2(O)C(O)=C3C(=O)c4c(O)cccc4[C@@](C)(O)[C@H]3C[C@@H]12 [Tetracycline]
Description: as §1

Gentamicin = compound: CNC(C)C1CCC(N)C(OC2C(N)CC(N)C(OC3OCC(C)(O)C(NC)C3O)C2O)O1 [Gentamicin]
Description: as §1

Streptomycin = compound: CN[C@@H]1[C@H](O[C@H]2[C@H](O[C@H]3[C@H](O)[C@@H](O)[C@H](N=C(N)N)[C@@H](O)[C@@H]3N=C(N)N)O[C@@H](C)[C@]2(O)C=O)O[C@@H](CO)[C@H](O)[C@H]1O [Streptomycin]
Description: as §1

Vancomycin = compound: CN[C@H](CC(C)C)C(=O)N[C@H]1C(=O)N[C@@H](CC(N)=O)C(=O)N[C@H]2C(=O)N[C@H]3C(=O)N[C@H](C(=O)N[C@H](C(=O)O)c4cc(O)cc(O)c4-c4cc3ccc4O)[C@H](O)c3ccc(c(Cl)c3)Oc3cc2cc(c3O[C@@H]2O[C@H](CO)[C@@H](O)[C@H](O)[C@H]2O[C@H]2C[C@](C)(N)[C@H](O)[C@H](C)O2)Oc2ccc(cc2Cl)[C@H]1O [Vancomycin]
Description: as §1

Neomycin = compound: NC[C@@H]1O[C@H](O[C@H]2[C@@H](O)[C@H](O[C@@H]3[C@@H](O)[C@H](N)C[C@H](N)[C@H]3O[C@H]3O[C@H](CN)[C@@H](O)[C@H](O)[C@H]3N)O[C@@H]2CO)[C@H](N)[C@@H](O)[C@@H]1O [Neomycin]
Description: as §1

Kanamycin = compound: NC[C@H]1O[C@H](O[C@H]2[C@H](O)[C@@H](O[C@H]3O[C@H](CO)[C@@H](O)[C@H](N)[C@H]3O)[C@H](N)C[C@@H]2N)[C@H](O)[C@@H](O)[C@@H]1O [Kanamycin]
Description: as §1

Chloramphenicol = compound: O=C(N[C@H](CO)[C@H](O)c1ccc([N+](=O)[O-])cc1)C(Cl)Cl [Chloramphenicol]
Description: as §1
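Also: isolates derived from commercial starter, protective, probiotic or feed-additive cultures, from fermented products, from human gut mucosa or feces, and from human milk or colostrum.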

Test System | minimum inhibitory concentration (Ampicillin) [µg/mL] | minimum inhibitory concentration (Clindamycin) [µg/mL] | minimum inhibitory concentration (Erythromycin) [µg/mL] | minimum inhibitory concentration (Tetracycline) [µg/mL] | minimum inhibitory concentration (Gentamicin) [µg/mL] | minimum inhibitory concentration (Streptomycin) [µg/mL] | minimum inhibitory concentration (Vancomycin) [µg/mL] | minimum inhibitory concentration (Neomycin) [µg/mL] | minimum inhibitory concentration (Kanamycin) [µg/mL] | minimum inhibitory concentration (Chloramphenicol) [µg/mL]
Bifidobacterium adolescentis IM752 (strain group: human intestinal mucosa or faeces) | 8 | 0.12 | 0.25 | 16 | 64 | 64 | 0.5 | 64 | 256 | 2
Bifidobacterium adolescentis IM765 (strain group: human intestinal mucosa or faeces) | 0.063 | 0.12 | 0.12 | 1 | 64 | 128 | 0.5 | 64 | 256 | 2
Lactococcus lactis IM1330 (strain group: non-starter strains) | 0.5 | 0.5 | 1 | 0.5 | 2 | 32 | 0.5 | 16 | 8 | 4
Lactobacillus gasseri IM951 (strain group: human intestinal mucosa or faeces) | 1 | 0.5 | 0.25 | 4 | 4 | 64 | 1 | 64 | 128 | 4
Lactococcus lactis IM1343 (strain group: non-starter strains) | 0.5 | 0.5 | 1 | 0.25 | 8 | 64 | < 0.25 | 16 | 16 | 4
Bifidobacterium adolescentis IM797 (strain group: human intestinal mucosa or faeces) | 0.063 | 0.06 | 0.06 | 0.5 | 64 | 256 | < 0.25 | 128 | 512 | 1
Lactiplantibacillus plantarum IM1469 (strain group: starter cultures) | 4 | 0.06 | 0.5 | 16 | 8 | 64 | > 128 | 32 | 128 | 8
Streptococcus thermophilus IM1440 (strain group: starter cultures) | 0.25 | 0.06 | 0.25 | 1 | 4 | 16 | 0.5 | 8 | 32 | 4
